Assay results taken from paper PMC6919601, “Identification of Plasmodium dipeptidyl aminopeptidase allosteric inhibitors by high throughput screening” (PLoS ONE, 2019).
“And” between values parts separate entries of the source, which are not always exact repeats. Identical values can stand only once. Screen size: about 110,000 compounds; about 230 (0.21%) showed an effect of 50% or more. The list shows a part of the results.

Molecular target: DPAP1 (Plasmodium falciparum, UniProt Q8IIJ9)
Assay: primary screen, percent inhibition; read by cleavage of a fluorogenic dipeptide substrate; higher = more effect of the substance
Design: species or system P. falciparum D10 trophozoite lysates; single well
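Also: 30 min substrate incubation versus DMSO and 10 µM JCP410 controls.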

Sequence of DPAP1 (Q8IIJ9 whole entry, looked up): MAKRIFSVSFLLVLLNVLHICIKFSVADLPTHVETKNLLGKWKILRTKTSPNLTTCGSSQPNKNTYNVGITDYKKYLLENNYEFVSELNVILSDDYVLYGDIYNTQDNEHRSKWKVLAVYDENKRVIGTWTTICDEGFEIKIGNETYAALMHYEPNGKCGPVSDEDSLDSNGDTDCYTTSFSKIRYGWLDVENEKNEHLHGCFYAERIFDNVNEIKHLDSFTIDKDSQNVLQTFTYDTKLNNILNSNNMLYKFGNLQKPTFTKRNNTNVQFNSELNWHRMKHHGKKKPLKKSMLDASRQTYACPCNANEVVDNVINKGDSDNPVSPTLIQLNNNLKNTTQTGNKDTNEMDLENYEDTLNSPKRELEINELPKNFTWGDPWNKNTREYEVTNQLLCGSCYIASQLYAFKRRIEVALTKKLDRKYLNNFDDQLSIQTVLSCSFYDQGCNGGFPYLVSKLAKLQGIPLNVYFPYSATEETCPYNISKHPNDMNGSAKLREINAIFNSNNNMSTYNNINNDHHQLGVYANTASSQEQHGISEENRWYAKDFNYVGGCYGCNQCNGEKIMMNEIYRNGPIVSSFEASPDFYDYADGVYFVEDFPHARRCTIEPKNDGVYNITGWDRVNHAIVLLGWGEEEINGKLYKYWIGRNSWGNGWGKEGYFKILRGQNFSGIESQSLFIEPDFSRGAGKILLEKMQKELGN

Row | Compound | % Inhibition @ 10 uM
1 | CSc1nncn1-c1ccccc1 | 2.7%
2 | CC(=O)N1c2ccccc2N=C2CC(C)(C)CC(O)=C2C1c1ccc(OC(C)C)cc1 (stereo not shown) | 5.24%
3 | CCS(=O)(=O)c1nc(S(=O)(=O)c2ccc(Cl)cc2)c(NCC(C)C)s1 | -2.25%
4 | COc1ccc(NC(=O)C(C)Oc2ccccc2)cc1 (stereo not shown) | 0.843%
5 | CC1CCCC(C)N1C(=O)c1cnn2c(C(F)(F)F)cc(-c3cccs3)nc12 (stereo not shown) | -2.8%
6 | Cc1nn(C(=O)CCCCCNC(=O)c2ccccc2)c(C)c1Cl | 1.91%
7 | Cc1ccccc1S(=O)Cc1ccc(C(=O)NCCc2ccc(Cl)cc2)o1 (stereo not shown) | -1.28%
8 | CCN(CC)CC(O)Cn1c2ccc(Cl)cc2c2cc(Cl)ccc21 (stereo not shown) | 1.44%
9 | COc1ccc(C(=O)/C=C2/Sc3cc4c(cc3N2C)OCO4)cc1 | -1.32%
10 | COc1ccc(CNC(=O)C(C)Oc2cccc(Cl)c2)cc1 (stereo not shown) | -0.992%
11 | CC(=O)Nc1ccc(S(=O)(=O)Nc2ccc(S(=O)(=O)N3CCOCC3)cc2)cc1 | -1.57%
12 | CC[C@H](NC(=O)[C@@H](C[C@H](C)c1ccccc1)NC(=O)c1ccc(-c2ccccc2Cl)cc1)C(=O)c1nc2ccccc2o1 | 2.87%
13 | COc1ccc(Br)cc1CNC(=O)C1CCCN(c2nc3ccccc3n3cccc23)C1 (stereo not shown) | 0.0845%
14 | CCCNC(=O)Cn1c(=O)cc(C)c2c(C)nn(-c3ccc(CC)cc3)c21 | 7.35%
15 | COc1cccc(OCCN2CCNCC2)c1 | -0.473%
16 | COc1ccc(OC)c(CNCCc2cccc(F)c2)c1 | 2.36% and -2.09%
17 | CCOc1ccc(-c2cn3c(n2)sc2cc(C(=O)NCc4cccs4)ccc23)cc1 | 5.37%
18 | CCOc1cc(Cl)c(/C=C2\SC(N)=NC2=O)cc1OCC | 0.635%
19 | CN(CCc1ccccn1)CC1CCCCC1 | -6.62%
20 | O=C(Nc1cccc(NC(=O)c2ccncc2)c1)c1ccncc1 | -1.89%
21 | Cc1nn(CC(=O)NCC(C)c2ccccc2)c(=O)c2cc3occc3n12 (stereo not shown) | 6.06%
22 | CCOc1ccc(/C=C/c2nc3ccccc3[nH]2)cc1 | -3.78%
23 | CC/N=C(\S)C1COc2ccccc2O1 (stereo not shown) | 3.96%
24 | Oc1cnnc2ccccc12 | 4.79%
25 | C=CCn1c(SCC(=O)NCCN2CCOCC2)nc2sc(C)c(C)c2c1=O | -0.947%

Row | Compound | % Inhibition @ 10 uM
26 | CCOC(=O)c1cc(CC)sc1NC(=O)CCN1C(=O)c2ccccc2S1(=O)=O | -5.08%
27 | Cc1ccc(NC(=O)c2ccc([N+](=O)[O-])cc2C(=O)O)cc1 | -5.51%
28 | COc1ccccc1-c1cc(C(F)(F)F)nc(S(=O)(=O)CCCC(=O)N2CCOCC2)n1 | 3.54%
29 | Cc1cc(C(=O)N2CCN(S(=O)(=O)c3c(C)nc(O)nc3O)CC2)[nH]n1 | 1.76%
30 | Cc1cccc(N2CCN(C(=O)c3ccoc3C)CC2)c1C | 9.25%
31 | COc1cccc(CNC(=O)C(C)n2ccc3cc(S(=O)(=O)N4CCCC4)ccc32)c1OC (stereo not shown) | 2.31%
32 | Cc1cccc(-c2nnc(NC(=O)c3c(-c4ccccc4Cl)noc3C)s2)c1 | 3.06%
33 | CN(CC(=O)NCc1ccccc1Cl)S(=O)(=O)c1cccs1 | -5.88%
34 | CCC1(C(=O)c2ccccc2)C2c3ccccc3OC(=O)C21C(=O)N1CCOCC1 (stereo not shown) | -0.958%
35 | COc1ccc(OC)c(-n2nnc(-c3nsc(NC(=O)c4ccc(C)cc4)n3)c2C)c1 | -8.04%
36 | Nc1c(C(=O)NCc2ccccc2Cl)nnn1Cc1cccc(C(F)(F)F)c1 | -2.25%
37 | O=C(CN1C(=O)c2ccccc2Sc2ncccc21)NCCc1cccs1 | 2.83%
38 | COCCNC(=O)CCN1C(=O)c2ccccc2Sc2ncccc21 | -2.97%
39 | CCCCCc1ccc(-c2nc(-c3ccc(C4CCC(CCCCC)CC4)cc3)no2)cc1 (stereo not shown) | -0.693%
40 | CCC(=O)Nc1ccc(Cl)cc1-c1nc2ccccc2s1 | -3.18%
41 | O=S(=O)(Nc1cccnc1)c1cc(Cl)ccc1Cl | 0.736%
42 | CCOc1ccccc1NC(=O)c1ccc(Cl)cc1 | 2.22%
43 | N#CC1=C(N)Oc2cc(O)ccc2C1c1ccc(Br)cc1 (stereo not shown) | -0.239%
44 | C=C(C)CN1CCN(S(=O)(=O)c2ccc(C)c(N(C)S(=O)(=O)c3ccc(C)cc3)c2C)CC1 | -1.92%
45 | Cc1ccc(CNC(=O)C2CCN(c3nc4ccccc4o3)CC2)cc1 | -4.97%
46 | Nc1ncnc2c1nc(Br)n2[C@@H]1O[C@H](CO)[C@@H](O)[C@H]1O | 1.91%
47 | N#CCN1C(=O)c2cccc3cccc(c23)C1=O | -3.85%
48 | CC1=C(C(=O)Nc2cccc(F)c2)C(c2ccccn2)C2=C(O)CC(c3ccccc3)CC2=N1 (stereo not shown) | -3.46%
49 | CC1CCN(S(=O)(=O)c2ccc(C(=O)NCCc3ccc(Cl)cc3)cc2)CC1 | -2.63%
50 | Cc1ccccc1-c1noc(CCC(=O)N2CCN(C)CC2)n1 | 3.62%

Row | Compound | % Inhibition @ 10 uM
51 | COc1ccc(OC)c(CNc2nc3ccccc3c3nnc(C)n23)c1 | -0.696%
52 | COc1ccc(-c2nnc3sc(C(C)N4C(=O)c5ccccc5C4=O)nn23)cc1 (stereo not shown) | 1.96%
53 | COc1ccc(CN2CCSCC2)cc1C | -1.92%
54 | O=C(NCc1ccccc1Cl)C1CCN(S(=O)(=O)c2cccnc2)CC1 | 3.07%
55 | Cc1ccc(C(=O)Nc2ccc(S(=O)(=O)N3CCCC3)cc2)cc1 | -1.38%
56 | COc1ccc(CNC(=O)c2cc3c(C)nn(-c4ccccc4)c3s2)cc1 | -3.34%
57 | CCOC(=O)c1cc2cc3cc(OC)ccc3nc2s1 | -3.13%
58 | Cc1nc2nc(-c3ccc(Cl)cc3)nn2c(O)c1C | 2.42%
59 | COc1ccccc1C1=N/C(=C\C(C)=C\c2ccccc2)C(=O)O1 | 4.85%
60 | Fc1ccccc1COc1ccc(-c2nnc3ccc(C(F)(F)F)cn23)cc1 | 0.503%
61 | Cc1ccc(C)c(NC(=O)C2CC(=O)N(c3ccc(Br)cc3)C2)c1 (stereo not shown) | 3.13%
62 | COc1ccc(OCCCn2cc(/C=C3/C(=N)N4OC(C)=CC4=NC3=O)c3ccccc32)cc1 | 2%
63 | c1cc(-c2ccsc2)nc(-c2ccsc2)c1 | -2.85%
64 | COc1cccc(C(=O)Nc2ccc(Br)c(C)c2)c1 | 0.823%
65 | Clc1nc(NCc2ccccc2)nc(NCc2ccccc2)n1 | 8.97%
66 | COc1cc(C2Nc3ccccc3C(=O)N2c2ccc(F)cc2)cc(OC)c1OC (stereo not shown) | 4.03%
67 | O=C(NCc1ccccc1)c1cc(-c2ccc3c(c2)OCO3)on1 | -8.56%
68 | O=C(NCc1cccs1)c1ccc(CS(=O)(=O)c2c(Cl)cccc2Cl)o1 | -2.85%
69 | CN1CCN(CCCNC(=O)c2cn(C3CCCCC3)c(=O)c3c2c2ccccc2n3C)CC1 | 1.85%
70 | CCOc1ccc(CCNS(=O)(=O)c2ccc(Br)s2)cc1OCC | 5.93%
71 | COc1ccc(OC)c(NC(=O)CN(c2ccc(Br)cc2)S(C)(=O)=O)c1 | -9.26%
72 | O=C(CCCn1sc2ccccc2c1=O)N1CCC2(CC1)OCCO2 | 3.24%
73 | O=C(C1=Cc2sc3c(c2CS1)CCCC3)N1CCN(C2CCCCC2)CC1 | 32.6%
74 | Cc1nc2c(cc1C(=O)/C=C/c1ccco1)CCCC2 | -9.86%
75 | CCC(C)NC(=O)CCCn1nc(C)n2ccnc2c1=O (stereo not shown) | 1.72%

Row | Compound | % Inhibition @ 10 uM
76 | CC(=O)c1cccc(NC(=O)c2cc(-c3ccccc3)nc3ccccc23)c1 | -3.27%
77 | COc1cccc(C2CC(C(F)(F)F)n3ncc(C(=O)Nc4cccc(Cl)c4)c3N2)c1 (stereo not shown) | -6.48%
78 | COc1ccc(C(=O)Nc2c(C)ccc3nsnc23)cc1Cl | 0.812%
79 | O=C(O)c1c(CNCCc2cccs2)c2ccccc2n1Cc1ccc(Cl)cc1 | 0.277%
80 | CCCCc1nc2c(sc3nc(C)cc(COC)c32)c(=O)n1CCO | -1.24%
81 | O=C(Nc1ccccc1)Nc1cccc(F)c1 | -0.253%
82 | CCCN1C(=O)CN(C2CCC(C)CC2)C(=O)C1c1ccc(C)cc1 (stereo not shown) | 4.47%
83 | CCN(CC)CCCn1nnc2c(=O)oc3ccccc3c21 | 2.6%
84 | CNS(=O)(=O)c1ccc(-c2cccc(C(CC(C)C)C(=O)NCC#N)c2)cc1 (stereo not shown) | -4.72%
85 | COc1ccc(C(=O)NC2=NC(=O)CC(c3cccc(OC)c3OC)N2)cc1OC (stereo not shown) | -1.59%
86 | Cc1c(CNC(=O)c2nn3c(c2Cl)NC(c2cccs2)CC3C(F)(F)F)cnn1C (stereo not shown) | -0.988%
87 | CN1CCC(N2CCN(c3cccc(Cl)c3)CC2)CC1 | -3.6%
88 | O=S1(=O)N=C(N2CCCCC2)c2ccccc21 | -2.32%
89 | CC(C)c1ccc(N2CC(C(=O)Nc3nccs3)CC2=O)cc1 (stereo not shown) | -3.85%
90 | CCC1CCCCN1CCCNc1ncnc2onc(-c3ccc(Cl)cc3)c12 (stereo not shown) | -0.495%
91 | O=C(NC1CCCC1)c1cc(-c2ccc(Cl)c(Cl)c2)on1 | -4.51%
92 | O=C(NC1CCCC1)c1cc2nc(-c3ccc(F)cc3)cc(C(F)(F)F)n2n1 | -6.77%
93 | COc1ccccc1-n1c(S)nnc1CNC(=O)c1ccccc1C(F)(F)F | -0.339%
94 | N#Cc1c(NC(=O)COCc2cc(-c3cccs3)on2)sc2c1CCC2 | -3.53%
95 | Cn1cc(C(=O)NCCN2CCOCC2)c2c1-c1ccccc1SC2 | 4.28%
96 | O=C(NCc1ccncc1)Nc1ccc(Cl)c(Cl)c1 | 11.9%
97 | O=[N+]([O-])c1cnc(N2CCOCC2)nc1 | -2.36%
98 | O=C(NCc1ccco1)c1nc(-c2ccc(C(F)(F)F)cc2)no1 | -0.222%
99 | CCn1c(SCC(=O)N2CCOCC2)nc2ccccc2c1=O | -0.173%
100 | Fc1ccc(-c2noc3ncnc(NCc4ccc5c(c4)OCO5)c23)cc1 | -1.24%
